The whole screen tested about 130,000 compounds, of which about 1,900 (1.5%) were called active. This list was built around the results that the source calls inconclusive (neither active nor inactive); the mix of calls is not that of the screen. The call rests on the fitted dose curve; in most records, active means well fitted cell-killing curve with a large enough effect; inconclusive means small, poorly fitted or top-dose-only effect; inactive means no such curve, though single readings can be large or run the other way. Potencies beside an inconclusive call are fits to weak or partial responses and may not hold up.
Experiment: qHTS Screen for Compounds that Selectively Target Cancer Cells with p53 Mutations: Cytotoxicity of p53ts Cells at the Nonpermissive Temperature; further: nearly all actives have a fitted effect of over 55% in size
Settings: H1299-p53A138V viability at 39C, ATP luminescence, 24 h; activity change, negative = cell killing: at 46.1 µM (top of the series)
On the % scale 0 is the no-effect control and ±100 the full control effect; potency means the concentration at half of the fitted maximal effect; tags describe the fitted curve by direction and shape.

| SMILES | Potency | activity change, negative = cell killing |
| --- | --- | --- |
| CC(=O)c1cccc(NC(=O)Cn2nc(C)n3cccc3c2=O)c1 | inactive | – |
| COc1ccccc1OC(C)C(=O)Nc1ccc(-c2nc3ccccc3s2)cc1 (centres undefined) | inconclusive: 31.6 µM [cytotoxic, single point] | – |
| CCOc1ccc2nc(N3CCC(C(=O)N4CCN(c5ncccn5)CC4)CC3)sc2c1 | inactive | – |
| CN(Cc1ccccc1)C(=O)Nc1ccc2c(c1)N(C)C(=O)c1ccccc1S2 | active: 12.6 µM | – |
| O=C(NCc1ccccc1Cl)c1ccc(CSCc2ccccc2Cl)o1 | inconclusive: 31.6 µM [cytotoxic, single point] | – |
| OC[C@H]1O[C@@H](n2cnc3c(NCc4ccco4)ncnc32)[C@H](O)[C@@H]1O | inconclusive: 25.1 µM [cytotoxic, partial curve] | – |
| CC(C)Oc1ccc(C(=O)N(Cc2ccco2)c2ccccn2)cc1 | inconclusive: 12.6 µM [cytotoxic, single point] | – |
| O=C1CC(c2ccc3c(c2)OCO3)Sc2nc3ccccc3n21 (centres undefined) | active: 12.6 µM | – |
| CCN(C(=O)C1CCCN(S(=O)(=O)c2c(C)noc2/C=C/N(C)C)C1)c1cccc(C)c1 (centres undefined) | inactive | – |
| Cc1cc(OCc2nc(N)nc(N)c2-c2ccc(Cl)c(Cl)c2)ccc1[N+](=O)[O-] | inconclusive: 1.26 µM [cytotoxic, partial curve] | – |
| CCCNC(=O)C1CCC(Cn2c(=O)c3sccc3n(CC(=O)N3CCC(C)CC3)c2=O)CC1 (centres undefined) | inactive | – |
| COc1ccc(C(C)C)cc1S(=O)(=O)NCCc1c(C)[nH]c2ccc(C)cc12 | inconclusive: 7.94 µM [cytotoxic, partial curve] | – |
| COc1ccc(CCCc2nnc(SCC(=O)Nc3ccc(C)cc3C)o2)cc1 | inactive | – |
| CCn1c(CNc2ccc(Cl)cc2)nnc1SCc1ccc(Cl)cc1 | inconclusive: 12.6 µM [cytotoxic, single point] | – |
| N#CC(C#N)=C1C=CC=CN1/C(=C\c1ccco1)C(=O)c1ccc(-c2ccccc2)cc1 | inconclusive: 22.4 µM [cytotoxic, single point] | – |
| O=C(COc1ccc2c(c1)CCC2)N1CCc2ccccc21 | inconclusive: 10 µM [cytotoxic, partial curve] | – |
| COc1cc(NS(C)(=O)=O)ccc1Nc1c2ccccc2nc2ccccc12 | inconclusive: 7.94 µM [cytotoxic, partial curve] | – |
| Nn1c(-c2ccccn2)nnc1-c1ccccn1 | inconclusive: 20 µM [cytotoxic, partial curve] | – |
| Cc1ccc(C(=O)Nc2c(C(=O)NCc3ccc(Cl)cc3)sc3nc(C)cc(C)c23)cc1 | inconclusive: 15.8 µM [cytotoxic, single point] | – |
| CCc1ccc(CN2C(=O)c3ccccc3C2C(=O)NCCc2ccc(OC)c(OC)c2)cc1 (centres undefined) | inconclusive: 0.01 µM [cytotoxic, full curve, poor fit] | – |
| Cc1cccc(C(=O)Nc2ccc(-c3nc4ccccc4s3)c(C)c2)c1 | inconclusive: 12.6 µM [cytotoxic, partial curve] | – |
| COc1ccc(N2CCN(CC(O)COc3ccccc3C(C)(C)C)CC2)cc1 (centres undefined) | inconclusive: 25.1 µM [cytotoxic, single point] | – |
| Cc1cccc(N2CCN(C(=O)Cn3c(=O)c4cccn4c4ccc(F)cc43)CC2C)c1 (centres undefined) | inconclusive: 10 µM [cytotoxic, partial curve] | – |

| SMILES | Potency | activity change, negative = cell killing |
| --- | --- | --- |
| CC(=O)Nc1cc(C(=O)NCc2ccccc2)ccc1Sc1ccc(C)cc1 | inconclusive: 0.0079 µM [cytotoxic, full curve, poor fit] | – |
| CCc1ccccc1NC(=O)CSc1nnc(-c2cc(OC)c(OC)c(OC)c2)o1 | inconclusive: 2 µM [cytotoxic, full curve] | – |
| CC1CCc2nc(NC(=O)CSc3nc4ccccc4o3)sc2C1 (centres undefined) | inconclusive: 10 µM [cytotoxic, partial curve] | – |
| CN(C)c1ccc(N=Nc2ccccc2C(=O)OCC(=O)N(C)c2ccccc2)cc1 | inconclusive: 22.4 µM [cytotoxic, single point] | – |
| CCOc1ccc(NC(=O)c2cccc3c2C(=O)N(Cc2cccnc2)C3)cc1 | inconclusive: 15.8 µM [cytotoxic, partial curve] | – |
| Cc1ccc2[nH]cc(C(c3ccccc3)c3cccs3)c2c1 (centres undefined) | inconclusive: 15.8 µM [cytotoxic, single point] | – |
| O=C(Nc1ccc(N2CCOCC2)c(Cl)c1)c1ccco1 | active: 15.8 µM | – |
| COC(=O)C/C=C\[C@@H](C)[C@@H](/C=N\OC[C@@H]1O[C@H](c2ccccc2)C=C[C@@H]1Oc1ccc(OC)cc1)NS(=O)(=O)c1ccc(C)cc1 | – | inactive: 7.45% [at 9.22 µM] |
| S=c1[nH]nc(-c2ccc3ccccc3n2)n1-c1ccccc1 | inconclusive: 25.1 µM [cytotoxic, single point] | – |
| COC(=O)c1ccc(O)c(Sc2cc(C(=O)OC)ccc2O)c1 | inconclusive: 31.6 µM [cytotoxic, single point] | – |
| O=S(=O)(Nc1cccc2ncccc12)c1cccs1 | inactive | – |
| O=c1[nH]c(NNC(=S)NCc2ccccc2)nc2c1C1(CCCCC1)Cc1ccccc1-2 | inconclusive: 31.6 µM [cytotoxic, single point] | – |
| CC1(O)CC2C(CC1O)C2(C)C (centres undefined) | inactive | – |
| COCCN(CCOC)S(=O)(=O)c1ccc(C(=O)Nc2nnc(C)o2)cc1 | inactive | – |
| CCc1cc2c(cc3c(=O)n(CCCC(=O)NCc4ccccc4Cl)nc(CC)n32)s1 | inconclusive: 12.6 µM [cytotoxic, single point] | – |
| COC(=O)c1ccc(Cn2c(=O)cc(C)c3c(C)nn(C)c32)cc1 | inconclusive: 0.02 µM [cytotoxic, full curve, poor fit] | – |
| CC(C)OC(=O)CSc1n[nH]c(-c2cccnc2)n1 | inactive | – |
| CCCS(=O)(=O)N1CCC(N2CCN(Cc3ccc(C)cc3)C(=O)C2=O)CC1 | inactive | – |
| COc1ccc(NC(=O)c2cccc(N3CCCS3(=O)=O)c2)cc1 | inconclusive: 2 µM [cytotoxic, full curve, poor fit] | – |
| Cc1cccc(NC(=O)CSc2nnc(-c3cccs3)o2)c1 | inconclusive: 0.251 µM [cytotoxic, full curve, poor fit] | – |
| COc1cccc2cc(-c3nnc(Nc4ccccc4C)s3)c(=O)oc12 | inconclusive: 0.398 µM [cytotoxic, full curve, poor fit] | – |
| OCc1ccnc2c(O)cccc12 | inconclusive: 10 µM [cytotoxic, partial curve] | – |
| CCCc1ccc(Oc2c(-c3ccc(O)c(C)c3O)n[nH]c2C)cc1 | inconclusive: 25.1 µM [cytotoxic, single point] | – |

| SMILES | Potency | activity change, negative = cell killing |
| --- | --- | --- |
| NC(=O)c1c(NC(=O)c2noc3c2CCCC3)sc2c1CCCC2 | inactive | – |
| CCN1c2ccccc2NC2N=C(OC)C(c3ccccc3)C21 (centres undefined) | active: 12.6 µM | – |
| COc1ccc(C2=NOC(C(=O)NCc3ccc(F)cc3)C2)cc1OC (centres undefined) | inactive | – |
| COC(=O)[C@@]1(Cc2ccccc2)[C@H]2c3cc(C(=O)N4CCCC4)n(CC4CC4)c3C[C@H]2CN1C(=O)c1ccccc1 | inactive | – |
| CC(=O)c1ccc(NC(=O)c2cccc(NC(=O)N3CCSc4ncccc43)c2)cc1 | inconclusive: 0.794 µM [cytotoxic, full curve, poor fit] | – |
| CCOC(=O)c1cnc(-n2nc(C)cc2C)nc1NCc1ccccc1 | inconclusive: 20 µM [cytotoxic, single point] | – |
| COc1ccccc1Nc1nnc(SCC(=O)N2CCCC2=O)s1 | inactive | – |
| CC(C)(C)C1CCc2nc(NC(=O)c3cccc(Cl)c3)sc2C1 (centres undefined) | inconclusive: 7.94 µM [cytotoxic, partial curve] | – |
| CCCCSCCCNC(=O)C1CCN(Cc2nc(-c3ccc(CC)cc3)oc2C)CC1 | inconclusive: 12.6 µM [cytotoxic, single point] | – |
| COC(=O)/C=C\c1cc(O)ccc1O | inconclusive: 39.8 µM [cytotoxic, single point] | – |
| CC(=O)Nc1ccc(-c2csc(NCc3ccco3)n2)cc1 | inconclusive: 17.8 µM [cytotoxic, partial curve, poor fit] | – |
| Cc1ccccc1NC(=O)Nc1csc2c1CCCC2 | inconclusive: 20 µM [cytotoxic, single point] | – |
| CCN(CC)C(=O)c1sc(NC(=O)c2ccoc2C)c(C(=O)OC)c1C | inactive | – |
| COc1cc(C#CC#CCN2CCCCC2)ccc1O | inactive | – |
| CCCC(=O)c1ccc(N2CCOCC2)c(F)c1 | inactive | – |
| CC(=O)Nc1ccc(NC(=O)CCc2c(C)nc3c(c(C)nn3-c3ccc(C)cc3)c2C)cc1 | active: 7.94 µM | – |
| CC(=O)N1CCCc2cc(S(=O)(=O)N(CCN(C)C)Cc3ccccc3)ccc21 | inconclusive: 10 µM [cytotoxic, partial curve] | – |
| Cc1ccc(-n2ncc3c(N4CCCCC4)ncnc32)cc1Cl | inconclusive: 2 µM [cytotoxic, full curve] | – |
| O=c1[nH]c(Cl)nc2c1ncn2C1OC(CO)C(O)C1O (centres undefined) | inactive | – |
| COc1ccc(C)cc1Nc1c2c(nc3ccccc13)CCC2 | inconclusive: 5.01 µM [cytotoxic, partial curve] | – |
| CCOc1cccc2sc(NC(=O)c3ccc(S(=O)(=O)N4CCCCC4)cc3)nc12 | inconclusive: 0.199 µM [cytotoxic, full curve, poor fit] | – |
| Cc1noc2ncnc(N3CCCC(C(=O)Nc4cc(F)ccc4F)C3)c12 (centres undefined) | inconclusive: 3.98 µM [cytotoxic, full curve, poor fit] | – |
| CCOc1ccc(CNC(=O)CCCn2nc(C)c3c(C)n(-c4ccc(C)cc4)nc3c2=O)cc1 | inconclusive: 0.794 µM [cytotoxic, full curve, poor fit] | – |

— PubChem BioAssay AID902 (National Center for Advancing Translational Sciences (NCATS), 2007)
